Experimental data taken from PubChem BioAssay (NCATS).
The list shows a part of the results. Further columns of the screen follow, without active or inactive calls. For some assays here: Most of these compounds were active or inconclusive in the main read-out, so they are no random draw. For some assays here: The note in brackets gives the kind of curve behind each potency; many fits are weak.

Experiments:
[1] = qHTS drug screen for cell cycle checkpoint inhibitors in PARPi-resistant BRCA-mutant ovarian cancer cell lines. (AID 1963452); conditions: PEO1/OlaR viability, CellTiter-Glo luminescence, 96 h
Procedure, shortened: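 PEO1, PEO4 and PEO1/OlaR ovarian cancer cells, 600 per well, exposed 96 h at 37C to a dilution series. Viability read by CellTiter-Glo luminescence, normalized to DMSO and empty wells; activity summarized as Z-AUC.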

[2] = qHTS for identification of novel therapeutic agents for treatment of microphthalmiaassociated transcription factor (MiT) renal cell carcinoma (RCC) (AID 1963991); conditions: CellTiter-Glo, 48 h; for z-score: stronger effect = lower value
Procedure, shortened: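 Three TFE3-fusion RCC lines (UOK109, UOK124, UOK145), 500 cells/well in complete medium, were treated with MIPE 4.0 compounds for 48 hours at 37 C. Viability was by CellTiter-Glo luminescence, normalized to DMSO (100%) and empty wells (0%); curves fitted over 11 concentrations.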

[3] = qHTS Validation Assay to Find Inhibitors of Chronic Active B-Cell Receptor Signaling (AID 485345); conditions: ABC-DLBCL cells, chronic BCR signaling reporter
Procedure, shortened: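 TMD8 ABC-DLBCL cells with dox-inducible green luciferase–IκBα fusion and red native luciferase; compounds 46 uM–3 nM, 4 h at 37C with doxycycline in 0.5% FBS IMDM. Green/red ratio normalized to basal and 10 uM MG-132.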

[4] = qHTS assay for small molecule antagonists of peroxisome proliferator-activated receptor delta signaling (AID 588535); conditions: HEK293T PPARd-UAS-bla, beta-lactamase FRET ratio, 18 h; 460 nm channel;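 also: cells co-treated with a PPAR-delta agonist as stimulator during compound exposure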
Procedure, shortened: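 Inhibition of PPAR-delta response element-driven beta-lactamase expression is measured in HEK293T cells exposed to a compound titration series for 18 hrs at 37 C. Half-maximal inhibition comes from Hill equation fitting.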

[5] = qHTS assay for small molecule antagonists of peroxisome proliferator-activated receptor gamma signaling (AID 588537); conditions: HEK293 PPARg-UAS-bla, beta-lactamase ratio, antagonist mode; measured here: W460 blue channel
Procedure, shortened: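 Compounds are tested as concentration series for inhibition of rosiglitazone-driven (50 nM) reporter expression in GeneBLAzer PPAR-gamma-UAS-bla HEK293 cells. After 16 h at 37 C, CCF4 substrate is added for 2 h at room temperature and blue/green fluorescence is measured.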

[6] = qHTS assay for small molecule agonists of retinoid X receptor alpha signaling (AID 588544); conditions: HEK293T RXRa-UAS-bla, beta-lactamase reporter, 18 h; 530 nm emission
[7] = qHTS assay for small molecule antagonists of retinoid X receptor alpha signaling (AID 588546); conditions: HEK293T RXRa-UAS-bla, beta-lactamase ratio, antagonist mode; measured here: W530 green channel, cytotoxicity proxy;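 also: cells stimulated with 9-cis-retinoic acid as agonist; % is scaled to controls: 0 for no effect and ±100 for the full control effect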
Procedure, shortened: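 Beta-lactamase reporter inhibition, read as CCF4 fluorescence ratio (ex 405, em 460/530 nm) after 2 h at RT. HEK293T UAS-bla cells, 2500/well, were stimulated with 9-cis-RA at 500 or 100 nM final alongside test compound for 18 h at 37 C.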

[8] = S16 Schwann cell PMP22 intronic element beta-lactamase assay (AID 624044); conditions: S16 rat Schwann cells, PMP22 element beta-lactamase FRET, 24 h; also: nearly all actives have a fitted effect of over 15% in size
Procedure, shortened: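 Beta-lactamase reporter under a PMP22 intronic regulatory element in stable S16 rat Schwann cells; 24 h compound exposure. 460 nm blue signal normalized between DMSO (0%) and potassium clavulanate, with 535 nm FRET tracking viability; curves classed by r2 and response.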

[9] = qHTS Assay for Inhibitors of PDE-IV (AID 607); conditions: HEK293 ACTOne CNG channel cells, membrane potential fluorescence; measured here: parental cell counter-screen;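 also: parental cells stimulated with forskolin 10 µM plus RO 20-1724 100 µM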
Procedure, shortened: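 HEK293 ACTOne cells with CNG channel (1000/well), endogenous PDE4; membrane potential dye, compounds up to 22.9 uM final. Fluorescence Ex 535/Em 590; RO 20-1724 (100 uM final) as reference.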

[10] = TFE3-RCC viability, measured here: UOK124 cell viability
[11] = TFE3-RCC viability, measured here: UOK145 cell viability
[12] = measured here: CBR control luciferase (viability counter)
[13] = measured here: PEO1 parental viability
[14] = TFE3-RCC UOK109 viability, measured here: UOK109 Z-AUC
[15] = TFE3-RCC viability, measured here: UOK124 Z-AUC
[16] = TFE3-RCC viability, measured here: UOK145 Z-AUC
[17] = measured here: 460 nm blue channel
[18] = measured here: 530 nm viability channel
Tags tell the direction and shape of the fitted curve.

In the case of `Cc1c(CN2CCN(S(C)(=O)=O)CC2)sc2c(N3CCOCC3)nc(-c3cnc(N)nc3)nc12`, the AC50 ([1]; measured here: PEO4 viability) is reported as 13.8 µM [falling, partial curve, poor fit], the AC50 [2, 10] is reported as 0.132 µM [falling, full curve] and the AC50 [2, 11] is reported as 0.105 µM [falling, full curve].
In the case of `CC[C@H]1CN2CCc3cc(OC)c(OC)cc3[C@@H]2C[C@@H]1C[C@H]1NCCc2cc(OC)c(OC)cc21`, the AC50 [3, 12] is reported as 0.326 µM [falling, full curve], the AC50 [1, 13] is reported as 0.616 µM [falling, full curve] and the AC50 ([1]; measured here: PEO4 viability) is reported as 0.389 µM [falling, full curve].
With `CC#CCn1c(N2CCC[C@@H](N)C2)nc2c1c(=O)n(Cc1nc(C)c3ccccc3n1)c(=O)n2C` the AC50 ([1]; measured here: PEO4 viability) was 24.5 µM [falling, partial curve, poor fit], the z-score [2, 14] was 0.849 and the z-score [2, 15] was 0.884. For the same compound, the z-score [2, 16] was 0.698.
For `CC#C[C@]1(O)CC[C@H]2[C@@H]3CCC4=CC(=O)CCC4=C3[C@@H](c3ccc(N(C)C)cc3)C[C@@]21C`, the AC50 [3, 12] was 23.1 µM [falling, single point], the max response [4] was -96.8% and the AC50 [5] was 17.8 µM [falling, partial curve, poor fit]. For the same compound, the max response [6] was 46.7%, the max response [7] was 15.8% and the AC50 [1, 13] was 24.5 µM [falling, single point]. The AC50 ([1]; measured here: PEO4 viability) was 17.4 µM [falling, single point], the z-score [2, 14] was -0.703 and the z-score [2, 15] was -0.0996. For the same compound, the AC50 [2, 10] was 7.43 µM [falling, full curve], the z-score [2, 16] was -0.514 and the AC50 [2, 11] was 0.833 µM [falling, full curve].
In the case of `c1ccc2c(Cc3c[nH]c4ccccc34)c[nH]c2c1`, the AC50 [1, 13] is reported as 24.5 µM [falling, single point], the AC50 ([1]; measured here: PEO4 viability) is reported as 17.4 µM [falling, partial curve] and the z-score [2, 14] is reported as 0.129. For the same compound, the z-score [2, 15] was 0.0241, the AC50 [2, 10] was 26.4 µM [falling, single point] and the z-score [2, 16] was -0.454. For the same compound, the AC50 [2, 11] was 9.35 µM [falling, full curve].
With `CC(=O)N1CCN(c2ccc(OC[C@H]3CO[C@](Cn4ccnc4)(c4ccc(Cl)cc4Cl)O3)cc2)CC1` the AC50 ([3]; measured here: CBG/CBR ratio read-out) was 13 µM [falling, partial curve], the AC50 [3, 12] was 16.4 µM [falling, single point] and the max response [4] was -43.8%. The AC50 [1, 13] was 19.5 µM [falling, single point], the AC50 ([1]; measured here: PEO4 viability) was 19.5 µM [falling, partial curve, poor fit] and the z-score [2, 14] was 0.381. The z-score [2, 15] was 0.034, the AC50 [2, 10] was 23.5 µM [falling, partial curve] and the z-score [2, 16] was 3.12. For the same compound, the AC50 [2, 11] was 11.8 µM [falling, partial curve, poor fit].
For `NC(N)=NC(N)=NCCc1ccccc1`, the AC50 [5] was 50.1 µM [rising, single point], the AC50 [8, 17] was 9.99 µM [falling, single point] and the AC50 [8, 18] was 1.41 µM [falling, full curve, poor fit]. For the same compound, the AC50 [1, 13] was 13.8 µM [falling, partial curve], the AC50 ([1]; measured here: PEO4 viability) was 24.5 µM [falling, single point] and the z-score [2, 14] was 0.225. The z-score [2, 15] was 0.0578, the AC50 [2, 10] was 2.96 µM [falling, full curve] and the z-score [2, 16] was 0.328.
With `CCCCc1ccc2nc(NC(=O)OC)[nH]c2c1` the AC50 [8, 17] was 0.239 µM [falling, full curve], the AC50 [8, 18] was 11.2 µM [rising, partial curve] and the AC50 [1, 13] was 0.0174 µM [falling, full curve]. The AC50 ([1]; measured here: PEO4 viability) was 0.0436 µM [falling, full curve], the AC50 [2, 10] was 0.0833 µM [falling, full curve] and the AC50 [2, 11] was 0.00935 µM [falling, full curve].
In the case of `CC(C(=O)O)c1ccc2c(c1)CC(=O)c1ccccc1S2` (configuration not stated), the AC50 ([1]; measured here: PEO4 viability) is reported as 17.4 µM [rising, partial curve, poor fit], the z-score [2, 14] is reported as -0.793 and the z-score [2, 15] is reported as 0.997. For the same compound, the z-score [2, 16] was 0.0504.
With `Clc1ccc(COC(Cn2ccnc2)c2ccc(Cl)cc2Cl)c(Cl)c1` (configuration not stated) the AC50 [9] was 7.94 µM [rising, partial curve], the AC50 [1, 13] was 17.4 µM [falling, single point] and the AC50 ([1]; measured here: PEO4 viability) was 21.9 µM [falling, single point]. The z-score [2, 14] was -0.0878, the z-score [2, 15] was 0.0175 and the AC50 [2, 10] was 20.9 µM [falling, partial curve]. The z-score [2, 16] was 0.967.
In the case of `CN(C)Cc1ccc(-c2nc3cccc4c3n2CCNC4=O)cc1`, the AC50 [1, 13] is reported as 5.49 µM [falling, partial curve, poor fit], the AC50 ([1]; measured here: PEO4 viability) is reported as 19.5 µM [falling, partial curve, poor fit] and the z-score [2, 14] is reported as -1.01. The z-score [2, 15] was 1.03, the AC50 [2, 10] was 37.2 µM [falling, single point] and the z-score [2, 16] was -0.192. For the same compound, the AC50 [2, 11] was 20.9 µM [falling, partial curve].
In the case of `CCCCCCCCCCCCCC(=O)N[C@H](CO)[C@H](O)c1ccc([N+](=O)[O-])cc1`, the AC50 [1, 13] is reported as 24.5 µM [falling, single point], the z-score [2, 14] is reported as 0.433 and the z-score [2, 15] is reported as 0.476. For the same compound, the AC50 [2, 10] was 16.6 µM [falling, partial curve] and the z-score [2, 16] was 0.743.
